Measurements taken from PubChem BioAssay AID1508642 (National Center for Advancing Translational Sciences (NCATS), 2021).
The campaign covered roughly 43,000 compounds. About 200 (0.47%) were called active. About 12% were inconclusive and are not listed. Calls follow the shape of the dose curve; as a rule, active = well fitted cell-killing curve with a large enough effect; inconclusive = small, poorly fitted or top-dose-only effect, or effect the other way; inactive = flat fitted curve, though single readings scatter. The list shows a part of the results.

Assay: Cell viability qHTS assay in S16 Pmp22-F2sN cells; also: nearly all actives have a fitted effect of over 65% in size
Conditions: S16 Pmp22-F2sN Schwann cells viability, CellTiter-Glo, 24 h; series mostly up to 57.5 µM; activity change, negative = cytotoxicity: at the top concentration
In short: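 Viability was measured by CellTiter-Glo luminescence (15 min, room temperature). This followed 24 h at 37 °C of compound exposure (23 nL pin transfer) in S16 Pmp22-F2sN Schwann cells, 500-1,000 per well.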
% is scaled to controls: 0 for no effect and ±100 for the full control effect.

Structure (SMILES)	activity change, negative = cytotoxicity
CC(C)C(=O)Nc1ccc2nc(SCC(=O)N3CCCC3)sc2c1	inactive: 16.4%
CCCN(C(=O)c1cc2c(=O)oc3ccccc3c2s1)c1ccc(CC)cc1	inactive: -0.412%
CCc1ccc(OCC(=O)NC(Cc2c[nH]c3ccccc23)C(=O)O)cc1 (stereo unspecified)	inactive: -11%
Cc1c(Cl)cccc1NC(=O)N1CCN(C(=O)c2nsc3ccccc23)CC1	inactive: -8.46%
Cc1ccccc1Nc1cc(C(=O)NCCCN2CCN(c3cccc(Cl)c3)CC2)c2ccccc2n1	inactive: -23.2%
CCOCCCN(Cc1ccco1)S(=O)(=O)c1cc2c(cc1Cl)NC(=O)CO2	inactive: 7.57%
COc1cc(NC(=O)CSc2nnc(C)n3c2cc2oc(C)cc23)cc(OC)c1	inactive: -2.1%
Cc1ccccc1-c1noc(-c2ccc(N3CCCCC3)c([N+](=O)[O-])c2)n1	inactive: 3.45%
CCOc1ccc(CCNC(=O)C2CCN(C(=O)N3CC(CC)Oc4ccccc43)CC2)cc1 (stereo unspecified)	inactive: 5.84%
CCCCN(CC)CCCNC(=O)CS(=O)(=O)Cc1nc(-c2ccc(C)cc2)oc1C	inactive: -0.57%
CCCOc1ccc(C(=O)Nc2ccc3oc(-c4ccncc4)nc3c2)cc1	inactive: 10.6%
O=C(Nc1nnc(N2CCCCCC2)s1)Nc1cc(F)ccc1F	inactive: -0.062%
CCC(Sc1nnc2c(n1)[nH]c1ccccc12)C(=O)Nc1nnc(C(C)C)s1 (stereo unspecified)	inactive: 19%
CCCCOC(=O)c1c(N)n(-c2ccc(OC)cc2OC)c2nc3ccccc3nc12	inactive: 15.6%
COCCN(Cc1cccs1)S(=O)(=O)c1cc(-c2cc(C)no2)ccc1C	inactive: -4.02%
Cn1nnc2c(N3CCN(c4cccc(Cl)c4)CC3)ncnc21	inactive: 3.49%
COCCCNC(=O)c1c(NC(=O)Cc2coc3c(C)c(C)ccc23)sc2c1CCCC2	inactive: -8.27%
COc1cccc(CNC(=O)CCS(=O)(=O)c2ccc3c(c2)oc(=O)n3C)c1	inactive: -15.3%
CCn1nc(C)c2c(-c3ccccc3)cc(=O)n(C(C)C(=O)NCCC(C)C)c21 (stereo unspecified)	inactive: 0.963%
CC(C)c1ccc(Cn2c(COc3ccccc3)nc3ccccc32)cc1	inactive: 1.5%
O=C(COc1ccccc1F)Nc1ccc2nc(SCCOc3ccccc3)sc2c1	inactive: 8.57%
COc1ccc(NC(=O)CC2C(=O)N(c3cccc(OC)c3)C(=O)N2CCc2cccs2)cc1 (stereo unspecified)	inactive: 2.41%
Cc1ccc(NC(=O)Cn2c(=O)n(Cc3nc(-c4ccccc4)no3)c(=O)c3cc4c(cc32)OCO4)cc1F	inactive: -1.53%
CC(=O)Nc1ccc(NC(=O)CCc2nc3cccnc3n2Cc2cccs2)cc1	inactive: -5.15%

Structure (SMILES)	activity change, negative = cytotoxicity
Cc1ccc(C(=O)Nc2ccc3c(c2)n(C)c(=O)c(=O)n3C)cc1	inactive: -0.697%
CCc1ccc(OC(C)C(=O)N2CCC(c3nc4ccccc4o3)CC2)cc1 (stereo unspecified)	inactive: -28.1%
Cc1ccc(NC(=O)Cn2nc(C(=O)Nc3ccc(C)cc3)ccc2=O)cc1	inactive: -0.387%
CC1CCN(Cc2c(O)ccc3c(=O)c(Oc4ccccc4Cl)c(C(F)(F)F)oc23)CC1	inactive: 17.2%
COc1cc(/C=C(\C#N)C(=O)NCC2CCCO2)ccc1O (stereo unspecified)	inactive: 4.86%
CCc1ccccc1NC(=O)CSc1nc(-c2cccc(Cl)c2)nc2c1Cc1c(CO)cnc(C)c1O2	inactive: -0.291%
O=C(Nc1cc(-c2nc3ccccc3o2)ccc1Cl)c1sc2c([N+](=O)[O-])cccc2c1Cl	inactive: -1.74%
COc1ccc(-c2nc(SCC(=O)NC3CCCC3)c(-c3ccc(F)cc3)[nH]2)cc1	inactive: -22.1%
Cc1ccccc1C(=O)Nc1nnc(S(=O)(=O)N(C)Cc2ccccc2)s1	inactive: -7.1%
COc1ccc(-n2c(-c3ccc(C)cc3)cc3c2CC(C)(C)CC3=O)cc1Cl	inactive: -29.6%
CC1CCN(C(=O)Cn2c(=O)n(CC3CCC(C(=O)NC(C)C)CC3)c(=O)c3sccc32)CC1 (stereo unspecified)	inactive: 1.08%
O=C(NCCCN1CCCCC1)c1sc2ncccc2c1-n1cccc1	inactive: 3.9%
COc1ccc(Cn2c(CCC(=O)Nc3cc(OC)c(OC)c(OC)c3)nc3cccnc32)cc1	inactive: -12.8%
O=C(CSc1nccn1Cc1ccccc1)NCc1ccco1	inactive: 4.23%
CCOc1ccccc1NC(=O)CN1C(=O)COc2ccc(S(=O)(=O)N3CCOCC3)cc21	inactive: -0.945%
CCC(CC)C(=O)OCc1cc(=O)n2nc(C3CC3)sc2n1	inactive: -5.89%
O=C(CCCn1c(=O)c2cccn2c2ccccc21)Nc1cc(C(F)(F)F)ccc1Cl	inactive: -0.0768%
Cn1cc(-c2cc3n(n2)CCC(=O)N3CCCC(=O)NCc2ccc(Cl)cc2)c2ccccc21	inactive: 12.6%
CC1C(=O)Nc2ccc(S(=O)(=O)N3CCCCC3)cc2NC1=O (stereo unspecified)	inactive: -14%
Cc1cc(C)n(C(C)CC(=O)Nc2cccc(C(F)(F)F)c2)n1 (stereo unspecified)	inactive: 1.78%
CCN(CC)c1ccc(NC(=O)C2CCN(c3nnc(-n4cccc4)s3)CC2)c(C)c1	inactive: -20%
O=C(NCc1cccs1)c1ccc2c(=O)n3nc(Nc4ccccc4)sc3nc2c1	inactive: 4.06%
Cc1ccc2c(c1Br)C(O)(CC(=O)c1ccc(F)cc1)C(=O)N2 (stereo unspecified)	inactive: 0.744%
O=c1c2sc3ccccc3c2n(Cc2cccc(F)c2)c(=O)n1Cc1ccccc1	inactive: 6.44%

Structure (SMILES)	activity change, negative = cytotoxicity
CCOC(=O)Cn1c(=O)n(CC2CCCO2)c2nc(-c3ccccc3OC)nc(C(N)=O)c21 (stereo unspecified)	inactive: -11.8%
O=C(NC1CC(=O)N(c2ccc(F)cc2)C1)c1ccc(S(=O)(=O)N2CCCCC2)cc1 (stereo unspecified)	inactive: 0.614%
Cc1c(Cl)cccc1NC(=O)CC1Oc2ccccc2NC1=O (stereo unspecified)	inactive: 4.78%
CCOc1ccccc1C(=O)N(Cc1ccco1)Cc1ccco1	inactive: -6.49%
COc1ccccc1CNC(=O)C1CCCN(S(=O)(=O)c2ccc3c(c2)oc(=O)n3C)C1 (stereo unspecified)	inactive: -0.862%
COc1ccc(-c2cc(C(=O)Nc3c(C(=O)c4ccc(C)cc4)oc4ccccc34)no2)cc1	inactive: 2.05%
O=C(c1ccc2c(c1)N(Cc1ccccc1F)C(=O)c1ccccc1S2(=O)=O)N1CCC(Cc2ccccc2)CC1	inactive: 27.2%
Cc1cccc2sc(N(Cc3cccnc3)C(=O)CCc3ccccc3)nc12	inactive: -17.3%
Cc1ccc(-n2c(=O)c3oc4ccccc4c3n(CC(=O)Nc3ccc(F)c(Cl)c3)c2=O)cc1C	inactive: 15%
N#Cc1ccccc1NC(=O)C(=O)NCC(c1ccc2c(c1)OCO2)N1CCOCC1 (stereo unspecified)	inactive: -0.757%
O=C(CS(=O)(=O)c1cccc2nsnc12)Nc1ccc(F)cc1F	inactive: 3.46%
CCC(C)NC(=O)Cc1ccc(NC(=O)N2CCCCc3ccccc32)cc1 (stereo unspecified)	inactive: 3.92%
Cc1cc(C)cc(OCc2cc(=O)n3c4c(sc3n2)CCCC4)c1	inactive: 0.755%
O=C(Nc1ccccc1F)C1CCN(S(=O)(=O)c2ccc3c(c2)CCCN3C(=O)C2CCC2)CC1	inactive: 3.09%
CCCCN(C)C(=O)c1ccc2c(c1)N(Cc1ccc(F)cc1)C(=O)c1ccccc1S2(=O)=O	inactive: -6.81%
CC(C)CCNC(=O)c1c2c(nc3ccccc13)C(=O)N(C1CCCCC1)C2	inactive: 9.84%
CC(=O)N1CCOc2cc(S(=O)(=O)Nc3c(C)cccc3C(C)C)c(Cl)cc21	inactive: -7.56%
CCCCN(Cc1ccccc1)S(=O)(=O)c1cc(Br)cc2c1N(C(C)=O)CC2	inactive: 0.248%
O=C(Nc1ccc(C(=O)OCc2cc(=O)n3nc(C4CC4)sc3n2)cc1)c1cccc(Cl)c1	inactive: 18.4%
CCOC(=O)CCCN1C(=O)CCn2nc(-c3cn(C)c4ccccc34)cc21	inactive: -1.04%
CCOc1ccc(CCNC(=O)c2cccc(-n3c(C)nc4cccnc43)c2C)cc1	inactive: 3.54%
CCCCCn1c(=O)[nH]c2cc(C(=O)N3CCN(c4cccc(OC)c4)CC3)ccc2c1=O	inactive: -4.86%
COc1ccc(-c2nc3c(c(SCC(=O)Nc4ccccc4OC)n2)Cc2cccc(C)c2O3)cc1	inactive: 10.4%
CCOCCCNC(=O)c1cc(=O)[nH]c2ccc(S(=O)(=O)N3CCCC3)cc12	inactive: 4.23%

Structure (SMILES)	activity change, negative = cytotoxicity
CCOc1ccc(CNC(=O)c2cccn2-c2nnc(N3CCCCC3)s2)cc1OC	inactive: 26.2%
CCCCC(=O)Nc1c(C(=O)N2CCN(c3ccccc3)CC2)oc2ccccc12	inactive: 4.18%
CCCSc1ncc(Cl)c(C(=O)Nc2scc(-c3ccc(C)cc3)c2C(=O)OCC)n1	inactive: 12.4%
CCc1cccc(C)c1NC(=O)C1CCN(S(=O)(=O)c2cccc3nonc23)CC1	inactive: 15.6%
O=C1CC(c2ccc(Cl)cc2)c2cc3c(cc2N1)OCCO3 (stereo unspecified)	inactive: -7.32%
CC1(C(=O)NC2CCCCC2)Cc2ccccc2C(=O)N1Cc1ccc(F)cc1 (stereo unspecified)	inactive: 9.47%
Cc1ccc(S(=O)(=O)c2nc(-c3ccco3)oc2SCc2ccc(F)cc2)cc1	inactive: -27.7%
Cc1ccc(NC(=O)C2CCCN2S(=O)(=O)c2ccc3c(c2)C(C)(C)C(=O)N3C)cc1 (stereo unspecified)	inactive: -0.995%
COc1ccc(-c2cc(C)no2)cc1S(=O)(=O)NC1CCC(C)CC1 (stereo unspecified)	inactive: -14.6%
CCOc1ccc(NC(=O)c2cc(C)nc3c2c(C)nn3-c2cccc(F)c2)cc1	inactive: 12.5%
O=C(NCCS(=O)(=O)N1CCN(c2ccccc2F)CC1)C1CC(=O)N(c2ccccc2)C1 (stereo unspecified)	inactive: 1.74%
CCOc1ccc(CNC(=O)c2cnc3sc(N(CC)CC)nn3c2=O)cc1	inactive: -0.417%
COc1cccc(NC(=O)c2c(N3CCCC3=O)c3cc(C)ccc3n2C)c1	inactive: 15%
CCOc1ccc(-n2ccnc2SCC(=O)Nc2ccc3c(c2)OCO3)cc1	inactive: -11.9%
O=C(CSc1nc2ccccc2nc1Cc1ccccc1)Nc1ccccc1C(F)(F)F	inactive: 4.64%
Cc1ccc(Sc2c(C)nn(C(=O)c3ccc(Br)cc3)c2C)cc1	inactive: -1.6%
COc1ccc(Nc2ncnc3onc(C)c23)c(OC)c1	inactive: -2.03%
COc1ccc(OC)c(NC(=O)Cn2c(=O)n(Cc3nc(C)no3)c(=O)c3ccccc32)c1	inactive: -1.96%
COc1ccc(Cl)cc1NC(=O)NCCc1c(C)nn(C)c1C	inactive: 0.345%
CCc1cccc(C)c1NC(=O)c1ccc2c(c1)CCN2S(=O)(=O)CC	inactive: 2.74%
O=C(CSC1=Nc2ccccc2N=C(c2ccc(F)cc2)C1)Nc1ccc(Cl)cc1	inactive: 15.2%
COc1ccc(N2CCN(C(=O)C(C)n3c(=O)cc(C(F)(F)F)c4c(C)nn(C)c43)CC2)cc1 (stereo unspecified)	inactive: 17.3%
CCOC(=O)c1c(C)[nH]c(C)c1S(=O)(=O)NCC(=O)NCc1ccccc1Cl	inactive: -27.8%
COc1cc(C(CC(=O)Nc2cc(C)ccn2)N2Cc3ccccc3C2=O)cc(OC)c1OC (stereo unspecified)	inactive: 1.44%
